From patent US20230255200A1, “USE OF STROBILURIN TYPE COMPOUNDS FOR COMBATING PHYTOPATHOGENIC FUNGI CONTAINING AN AMINO ACID SUBSTITUTION F129L IN THE MITOCHONDRIAL CYTOCHROME B PROTEIN CONFERRING RESISTANCE TO QO […]” (BASF SE, priority 2020, published 2023)
The name of at least one read-out is uncertain.

Assays:
[1] = tested on: Phakopsora pachyrhizi containing the amino acid substitution F129L in the mitochondrial cytochrome b protein; assay: Protective control of soybean rust on soybeans caused by Phakopsora pachyrhizi (PHAKPA P2), inoculation 2 days after spraying; format: in vivo; settings: inoculated 2 days after treatment, F129L strain
[2] = tested on: Phakopsora pachyrhizi containing the amino acid substitution F129L in the mitochondrial cytochrome b protein; assay: Protective control of soybean rust on soybeans caused by Phakopsora pachyrhizi (PHAKPA P6), inoculation six days after spraying; format: in vivo; settings: inoculated six days after treatment, F129L strain
[3] = Table 1, % diseased leaf area on soybean, 4 ppm spray
[4] = Table 1, % diseased leaf area on soybean, 16 ppm spray
[5] = Table C1 comparative trial, % diseased leaf area, 4 ppm
[6] = Table C1 comparative trial, % diseased leaf area, 16 ppm

CO/N=C(/C(=O)OC)c1cccc(C)c1CO/N=C1\CCc2c(C)cccc21 [Compound 33]
PHAKPA (F129L) Disease level (%) P2 at 4 ppm [1, 3]: 100%
PHAKPA (F129L) Disease level (%) P2 at 16 ppm [1, 4]: 57%
PHAKPA (F129L) Disease level (%) P6 at 4 ppm [2, 3]: 97%
PHAKPA (F129L) Disease level (%) P6 at 16 ppm [2, 4]: 60%

CO/N=C(/C(=O)OC)c1cccc(C)c1CO/N=C1/c2ccccc2CC1C (stereo not drawn) [Compound 34]
PHAKPA (F129L) Disease level (%) P2 at 4 ppm [1, 3]: 100%
PHAKPA (F129L) Disease level (%) P2 at 16 ppm [1, 4]: 93%
PHAKPA (F129L) Disease level (%) P6 at 4 ppm [2, 3]: 100%
PHAKPA (F129L) Disease level (%) P6 at 16 ppm [2, 4]: 97%

CNC(=O)/C(=N/OC)c1cccc(C)c1CO/N=C1\CC(C)c2ccccc21 (stereo not drawn) [Compound 38]
PHAKPA (F129L) Disease level (%) P2 at 4 ppm [1, 3]: 28%
PHAKPA (F129L) Disease level (%) P2 at 16 ppm [1, 4]: 3%
PHAKPA (F129L) Disease level (%) P6 at 4 ppm [2, 3]: 80%
PHAKPA (F129L) Disease level (%) P6 at 16 ppm [2, 4]: 18%

CNC(=O)/C(=N/OC)c1cccc(C)c1CO/N=C1\CCc2c1cccc2C(F)(F)F [Compound 40]
PHAKPA (F129L) Disease level (%) P2 at 4 ppm [1, 3]: 100%
PHAKPA (F129L) Disease level (%) P2 at 16 ppm [1, 4]: 83%
PHAKPA (F129L) Disease level (%) P6 at 4 ppm [2, 3]: 100%
PHAKPA (F129L) Disease level (%) P6 at 16 ppm [2, 4]: 93%

CO/N=C(/C(=O)OC)c1cccc(C)c1CO/N=C1\C=Cc2ccccc21 [Compound 43]
PHAKPA (F129L) Disease level (%) P2 at 4 ppm [1, 3]: 100%
PHAKPA (F129L) Disease level (%) P2 at 16 ppm [1, 4]: 100%
PHAKPA (F129L) Disease level (%) P6 at 4 ppm [2, 3]: 100%
PHAKPA (F129L) Disease level (%) P6 at 16 ppm [2, 4]: 100%

CNC(=O)/C(=N/OC)c1cccc(C)c1CO/N=C1\C=Cc2ccccc21 [Compound 44]
PHAKPA (F129L) Disease level (%) P2 at 4 ppm [1, 3]: 100%
PHAKPA (F129L) Disease level (%) P2 at 16 ppm [1, 4]: 100%
PHAKPA (F129L) Disease level (%) P6 at 4 ppm [2, 3]: 100%
PHAKPA (F129L) Disease level (%) P6 at 16 ppm [2, 4]: 100%

CNC(=O)/C(=N/OC)c1cccc(C)c1CO/N=C1\CC2(CC2)c2ccc(F)cc21 [Compound 45]
PHAKPA (F129L) Disease level (%) P2 at 4 ppm [1, 3]: 100%
PHAKPA (F129L) Disease level (%) P2 at 16 ppm [1, 4]: 93%
PHAKPA (F129L) Disease level (%) P6 at 4 ppm [2, 3]: 90%
PHAKPA (F129L) Disease level (%) P6 at 16 ppm [2, 4]: 100%

CNC(=O)/C(=N/OC)c1cccc(C)c1CO/N=C1\CC(c2ccc(F)cc2)c2ccc(F)cc21 (stereo not drawn) [Compound 46]
PHAKPA (F129L) Disease level (%) P2 at 4 ppm [1, 3]: 100%
PHAKPA (F129L) Disease level (%) P2 at 16 ppm [1, 4]: 100%
PHAKPA (F129L) Disease level (%) P6 at 4 ppm [2, 3]: 97%
PHAKPA (F129L) Disease level (%) P6 at 16 ppm [2, 4]: 93%

CCC1C/C(=N\OCc2c(C)cccc2/C(=N\OC)C(=O)NC)c2cc(F)ccc21 (stereo not drawn) [Compound 47]
PHAKPA (F129L) Disease level (%) P2 at 4 ppm [1, 3]: 93%
PHAKPA (F129L) Disease level (%) P2 at 16 ppm [1, 4]: 27%
PHAKPA (F129L) Disease level (%) P6 at 4 ppm [2, 3]: 93%
PHAKPA (F129L) Disease level (%) P6 at 16 ppm [2, 4]: 57%

CO/N=C(/C(=O)OC)c1cccc(C)c1CO/N=C1\CC2(CC2)c2ccc(F)cc21 [Compound 48]
PHAKPA (F129L) Disease level (%) P2 at 4 ppm [1, 3]: 100%
PHAKPA (F129L) Disease level (%) P2 at 16 ppm [1, 4]: 100%
PHAKPA (F129L) Disease level (%) P6 at 4 ppm [2, 3]: 100%
PHAKPA (F129L) Disease level (%) P6 at 16 ppm [2, 4]: 100%

CO/N=C(/C(=O)OC)c1cccc(C)c1CO/N=C1\CC(c2ccc(F)cc2)c2ccc(F)cc21 (stereo not drawn) [Compound 49]
PHAKPA (F129L) Disease level (%) P2 at 4 ppm [1, 3]: 100%
PHAKPA (F129L) Disease level (%) P2 at 16 ppm [1, 4]: 100%
PHAKPA (F129L) Disease level (%) P6 at 4 ppm [2, 3]: 90%
PHAKPA (F129L) Disease level (%) P6 at 16 ppm [2, 4]: 100%

CCC1C/C(=N\OCc2c(C)cccc2/C(=N\OC)C(=O)OC)c2cc(F)ccc21 (stereo not drawn) [Compound 50]
PHAKPA (F129L) Disease level (%) P2 at 4 ppm [1, 3]: 100%
PHAKPA (F129L) Disease level (%) P2 at 16 ppm [1, 4]: 87%
PHAKPA (F129L) Disease level (%) P6 at 4 ppm [2, 3]: 93%
PHAKPA (F129L) Disease level (%) P6 at 16 ppm [2, 4]: 73%

CNC(=O)/C(=N/OC)c1cccc(C)c1CO/N=C1\C=Cc2ccc(F)cc21 [Compound 51]
PHAKPA (F129L) Disease level (%) P2 at 4 ppm [1, 3]: 60%
PHAKPA (F129L) Disease level (%) P2 at 16 ppm [1, 4]: 13%
PHAKPA (F129L) Disease level (%) P6 at 4 ppm [2, 3]: 90%
PHAKPA (F129L) Disease level (%) P6 at 16 ppm [2, 4]: 47%

CO/N=C(/C(=O)OC)c1cccc(C)c1CO/N=C1\C=Cc2ccc(F)cc21 [Compound 53]
PHAKPA (F129L) Disease level (%) P2 at 4 ppm [1, 3]: 97%
PHAKPA (F129L) Disease level (%) P2 at 16 ppm [1, 4]: 57%
PHAKPA (F129L) Disease level (%) P6 at 4 ppm [2, 3]: 80%
PHAKPA (F129L) Disease level (%) P6 at 16 ppm [2, 4]: 53%

CO/N=C(/C(=O)OC)c1cccc(C)c1CO/N=C1\C=C(c2ccc(F)cc2)c2ccc(F)cc21 [Compound 54]
PHAKPA (F129L) Disease level (%) P2 at 4 ppm [1, 3]: 100%
PHAKPA (F129L) Disease level (%) P2 at 16 ppm [1, 4]: 100%
PHAKPA (F129L) Disease level (%) P6 at 4 ppm [2, 3]: 87%
PHAKPA (F129L) Disease level (%) P6 at 16 ppm [2, 4]: 87%

CO/N=C(/C(=O)OC)c1cccc(C)c1CO/N=C1\C=C(C(F)(F)F)c2ccc(F)cc21 [Compound 55]
PHAKPA (F129L) Disease level (%) P2 at 4 ppm [1, 3]: 100%
PHAKPA (F129L) Disease level (%) P2 at 16 ppm [1, 4]: 100%
PHAKPA (F129L) Disease level (%) P6 at 4 ppm [2, 3]: 87%
PHAKPA (F129L) Disease level (%) P6 at 16 ppm [2, 4]: 93%

CO/N=C(/C(=O)OC)c1cccc(C)c1CO/N=C1\CCc2c(OC(F)F)cccc21 [Compound 56]
PHAKPA (F129L) Disease level (%) P2 at 4 ppm [1, 3]: 100%
PHAKPA (F129L) Disease level (%) P2 at 16 ppm [1, 4]: 93%
PHAKPA (F129L) Disease level (%) P6 at 4 ppm [2, 3]: 97%
PHAKPA (F129L) Disease level (%) P6 at 16 ppm [2, 4]: 87%

CNC(=O)/C(=N/OC)c1cccc(C)c1CO/N=C1\CCc2c(OC(F)F)cccc21 [Compound 57]
PHAKPA (F129L) Disease level (%) P2 at 4 ppm [1, 3]: 70%
PHAKPA (F129L) Disease level (%) P2 at 16 ppm [1, 4]: 22%
PHAKPA (F129L) Disease level (%) P6 at 4 ppm [2, 3]: 77%
PHAKPA (F129L) Disease level (%) P6 at 16 ppm [2, 4]: 33%

CO/N=C(/C(=O)OC)c1cccc(C)c1CO/N=C1\CCc2c1cccc2C(F)F [Compound 58]
PHAKPA (F129L) Disease level (%) P2 at 4 ppm [1, 3]: 100%
PHAKPA (F129L) Disease level (%) P2 at 16 ppm [1, 4]: 100%
PHAKPA (F129L) Disease level (%) P6 at 4 ppm [2, 3]: 93%
PHAKPA (F129L) Disease level (%) P6 at 16 ppm [2, 4]: 90%

CNC(=O)/C(=N/OC)c1cccc(C)c1CO/N=C1\CCc2c1cccc2C(F)F [Compound 59]
PHAKPA (F129L) Disease level (%) P2 at 4 ppm [1, 3]: 100%
PHAKPA (F129L) Disease level (%) P2 at 16 ppm [1, 4]: 97%
PHAKPA (F129L) Disease level (%) P6 at 4 ppm [2, 3]: 87%
PHAKPA (F129L) Disease level (%) P6 at 16 ppm [2, 4]: 67%

CNC(=O)/C(=N/OC)c1cccc(C)c1CO/N=C1\CCc2cccc(Br)c21 [Compound 60]
PHAKPA (F129L) Disease level (%) P2 at 4 ppm [1, 3]: 100%
PHAKPA (F129L) Disease level (%) P2 at 16 ppm [1, 4]: 93%
PHAKPA (F129L) Disease level (%) P6 at 4 ppm [2, 3]: 87%
PHAKPA (F129L) Disease level (%) P6 at 16 ppm [2, 4]: 63%

CO/N=C(/C(=O)OC)c1cccc(C)c1CO/N=C1/c2ccccc2CC1(F)F [Compound 61]
PHAKPA (F129L) Disease level (%) P2 at 4 ppm [1, 3]: 100%
PHAKPA (F129L) Disease level (%) P2 at 16 ppm [1, 4]: 87%
PHAKPA (F129L) Disease level (%) P6 at 4 ppm [2, 3]: 90%
PHAKPA (F129L) Disease level (%) P6 at 16 ppm [2, 4]: 80%

CCC1Cc2ccccc2/C1=N/OCc1c(C)cccc1/C(=N\OC)C(=O)OC (stereo not drawn) [Compound 63]
PHAKPA (F129L) Disease level (%) P2 at 4 ppm [1, 3]: 100%
PHAKPA (F129L) Disease level (%) P2 at 16 ppm [1, 4]: 100%
PHAKPA (F129L) Disease level (%) P6 at 4 ppm [2, 3]: 90%
PHAKPA (F129L) Disease level (%) P6 at 16 ppm [2, 4]: 87%

CO/N=C(/C(=O)OC)c1ccccc1CO/N=C(\C)c1cccc(C(F)(F)F)c1 [Trifloxystrobin, trifloxystrobin, reference compound]
PHAKPA (F129L) Disease level (%) P2 at 4 ppm [1, 5]: 83%
PHAKPA (F129L) Disease level (%) P2 at 16 ppm [1, 6]: 24%
PHAKPA (F129L) Disease level (%) P6 at 4 ppm [2, 5]: 100%
PHAKPA (F129L) Disease level (%) P6 at 16 ppm [2, 6]: 67%
